# The supplement of paper PMC3334620
# In all, about 33,000 sequences were measured (“E-score (-0.5 to 0.5)”: median about -0.054, highest 2% from about 0.35 on). This is one part of the list.
# Biological target: T1, Stb5 (UniProt P38699)
# T1 sequence: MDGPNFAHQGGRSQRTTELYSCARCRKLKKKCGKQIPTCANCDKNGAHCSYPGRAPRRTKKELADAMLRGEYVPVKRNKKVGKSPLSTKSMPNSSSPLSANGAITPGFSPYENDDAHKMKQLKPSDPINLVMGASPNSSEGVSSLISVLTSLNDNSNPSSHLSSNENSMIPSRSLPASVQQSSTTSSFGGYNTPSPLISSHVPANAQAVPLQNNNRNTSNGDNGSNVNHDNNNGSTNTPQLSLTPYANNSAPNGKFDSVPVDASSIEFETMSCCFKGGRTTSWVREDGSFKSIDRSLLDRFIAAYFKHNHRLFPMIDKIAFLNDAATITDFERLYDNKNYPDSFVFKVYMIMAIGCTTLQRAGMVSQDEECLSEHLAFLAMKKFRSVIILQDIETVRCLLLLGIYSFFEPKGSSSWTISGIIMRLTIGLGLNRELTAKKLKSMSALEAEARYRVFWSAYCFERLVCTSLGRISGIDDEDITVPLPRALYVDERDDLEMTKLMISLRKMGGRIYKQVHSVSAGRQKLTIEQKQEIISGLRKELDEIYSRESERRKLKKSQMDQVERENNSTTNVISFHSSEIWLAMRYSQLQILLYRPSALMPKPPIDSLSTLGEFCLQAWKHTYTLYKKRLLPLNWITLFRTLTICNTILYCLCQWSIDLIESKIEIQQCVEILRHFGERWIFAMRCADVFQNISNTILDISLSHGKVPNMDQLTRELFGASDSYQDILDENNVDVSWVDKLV
# Experiment: PBM E-score (8-mer binding enrichment) (E-score (-0.5 to 0.5)); higher = stronger / more preferred TF binding; most listed sequences are background and not binding sites
# Details: protein concentration: 200 nM; construct: GST-full length
# In short: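 Using PURExpress in vitro transcription/translation, GST-tagged yeast transcription factors were made in full-length or DNA-binding-domain form. These were applied at about 100-200 nM to double-stranded universal all-10-mer Agilent arrays, and bound protein was detected with fluorescent anti-GST. Scans were normalised with masliner before the Universal PBM Analysis Suite assigned E-scores to ungapped eight-base words pooled with their reverse complements.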
row,Sequence,PBM E-score
1,AACCGCGG,0.347
2,AAGCGCCT,0.0194
3,GAGGGCCC,0.0438
4,CACTTTGA,-0.0962
5,GCATTGGC,-0.236
6,TAGGCATA,-0.0974
7,ACCCCTGC,-0.114
8,GCAATGTA,-0.0403
9,CGAATTTA,0.0452
10,ACTATCTG,-0.228
11,AAGTGCAT,-0.167
12,CCCTCCAA,-0.058
13,AGGCTCAT,-0.189
14,ACCAGAAA,-0.162
15,ACAGAAAT,-0.0874
16,TCGAAGAA,-0.214
17,ACCTGTAA,-0.0837
18,CCCAGTAA,-0.198
19,GCGTTAAC,0.226
20,CTTTATGC,0.11
21,TTGTAAAA,-0.079
22,ACATCGAG,-0.146
23,AACGGCTG,0.00326
24,AAATTGGC,-0.0492
25,CCATACAC,-0.0464

row,Sequence,PBM E-score
1,AAGCCACG,-0.0184
2,AGCGCGAG,-0.0563
3,TAATCCGA,0.0662
4,CTTAAAAG,-0.187
5,CGAGATAG,-0.00732
6,ACAAGGAG,-0.135
7,ATTCGCAG,-0.0626
8,AAGTTAGA,-0.13
9,ACAAGATG,-0.211
10,AGTGCGCG,0.0549
11,GTGATCAA,-0.148
12,ATGTTACC,0.24
13,CTAATGAG,-0.147
14,CCGCACGA,0.159
15,ATAGCACG,-0.0126
16,AAGGTATT,0.136
17,CCCATGAC,-0.202
18,CAATAGTC,-0.0774
19,ACCGGATA,0.209
20,AAAACGTT,-0.133
21,CCTCAAGC,-0.181
22,GGCAGGCA,-0.118
23,GTGGACTA,0.0993
24,ACGCGCCT,0.013
25,GTGCGGGA,0.297

row,Sequence,PBM E-score
1,CAAATAAA,0.00893
2,AAGCGGTG,0.344
3,AATAGTCG,0.0284
4,GCGAGCCC,0.0242
5,CCTAGATA,-0.176
6,CGGTAACA,0.36
7,GCCCGTGA,0.123
8,AAGAGGCG,-0.132
9,AAGCACTT,-0.144
10,AGAGCCAC,-0.105
11,CTGTAGGA,-0.0922
12,CGTGACCA,-0.197
13,GCCTAGCC,0.156
14,AGCTCATA,-0.0979
15,AGGGAGCA,-0.336
16,TTCGTAAA,-0.0719
17,AGCATTGA,-0.357
18,ACACAACT,-0.146
19,AACTCACT,-0.247
20,CGGCTAGC,-0.0991
21,TCCCCGCA,0.332
22,CATTGGCA,-0.217
23,AGTCTTGG,-0.142
24,GGCCAAAC,0.158
25,CAAAGTTG,-0.237

row,Sequence,PBM E-score
1,AAGAACAT,-0.0596
2,CACATCGA,-0.182
3,GTCCGAGA,0.184
4,ATATTCGC,-0.0122
5,AAGGGGAT,-0.0681
6,AACTGTTC,0.00432
7,ACGCGCAG,-0.192
8,GAAATCGC,0.0466
9,CCCCCTAG,-0.234
10,ACTCATCT,-0.254
11,GATACCCC,0.138
12,CTGGAGAA,-0.232
13,CAATTCGG,0.11
14,AATCCAGC,-0.0112
15,CCACACTA,-0.0645
16,CCTATGTC,-0.0911
17,AGCCCCAA,-0.305
18,CTGAATAC,-0.137
19,TCATGCAA,-0.222
20,AAGTCGAT,-0.191
21,AAATCTCC,0.261
22,CAGAAAAG,-0.0539
23,CAGATAGG,-0.0158
24,AGCGATAC,-0.091
25,CGCGGAGC,0.245

row,Sequence,PBM E-score
1,CATAGTGC,-0.0321
2,GGTTTGAA,0.0123
3,AAGTTAGC,-0.155
4,ATATTCCG,0.171
5,TGTGCACA,-0.322
6,GCAGACGA,-0.025
7,CCGTTAGA,0.279
8,CAACGTAG,-0.224
9,ATACGACG,0.14
10,CGCTCTTA,0.31
11,CTGACCCA,0.00169
12,GCGGCACC,0.353
13,GCAAGTTA,-0.0697
14,GCTGCGAC,-0.00769
15,CCCGTTGC,0.117
16,ACCACTAA,-0.172
17,AAGGTGGT,-0.0568
18,ACGACAAT,-0.129
19,ATTAGAGA,-0.289
20,CGAACAAG,0.144
21,CCAGTCAG,-0.202
22,GCATGATA,0.00072
23,AGTGTGTC,-0.222
24,GTCCGAAA,0.259
25,ACACCCGT,0.162

row,Sequence,PBM E-score
1,GGGCTATA,0.0715
2,CGCAAGGA,-0.0543
3,CGTTAGAC,0.0433
4,ATTCGCAC,0.00083
5,CAAACTCG,-0.107
6,AGGCCGCG,0.292
7,AGTATGAG,-0.118
8,CAAATGAG,-0.17
9,GAACGGAA,0.0652
10,ACCGGAAT,0.136
11,GATAGAGA,0.0107
12,AATATTGG,-0.13
13,CGGATGCC,0.0962
14,AAAACGAA,-0.0215
15,AGCCCGTC,0.284
16,AATGGTTG,-0.0296
17,ACAGACGT,-0.141
18,GCCACCCC,-0.13
19,CACATATA,0.134
20,TGAAGTCA,-0.0878
21,CATTGATA,0.0233
22,CACGACAG,-0.114
23,GCCTATTA,-0.0797
24,CCCTGGAC,-0.207
25,AATTCTCC,0.328

row,Sequence,PBM E-score
1,CATGAACA,-0.0519
2,AGGAACCC,-0.0964
3,ACCGCACT,0.282
4,CCTATTTA,-0.0269
5,CAACAGGA,-0.233
6,AATAACAG,0.0452
7,AGTCGAAG,-0.17
8,ATACCCGC,0.336
9,CTACGGGA,0.125
10,ACCTCGCT,0.0111
11,CTTAAGGA,-0.0857
12,ACGTGGCG,-0.0164
13,ATGCTCTC,-0.145
14,GTTCGAAC,0.0601
15,AGGTGCGG,0.231
16,TATATAGA,-0.047
17,ATCGAAAG,-0.109
18,GGTGCACA,-0.0478
19,AAGACAGA,-0.187
20,AAACATTT,-0.192
21,CCCACGCA,-0.208
22,ATTAATCC,0.172
